Source: article PMC11617104 (Molecular Biology of the Cell, 2024)

Target: the molecule itself
Test: SEC-MALS

B1: G3BP1 NTF2L domain ([…]), V11A (domain or fragment)
chain: not shown
stoichiometry N: 2
